According to PubChem BioAssay (NCATS):
Values joined by “and” are separate entries in the source; they are usually repeats but may differ in a detail not shown here. Identical values can stand only once. The inconclusive results got no clear call from the source; some entries with a clear call stand among them for comparison. Potencies beside an inconclusive call are fits to weak or partial responses and may not hold up. Active and inactive are the calls of the source. Calls follow the shape of the dose curve; as a rule, active = well fitted inhibition curve with a large enough effect; inconclusive = small, poorly fitted or top-dose-only effect; inactive = flat fitted curve, though single readings scatter. Residues, ends and D or L forms follow the SMILES beside them.

These molecules were tested on Zika virus NS2B-NS3 protease (linked construct) (assay: Confirmatory screen NINDS AMC qHTS for Zika virus inhibitors (AID 1347152)). Conditions: Purified linked NS2B-NS3, AMC substrate fluorescence; series mostly up to 56.6 µM.
Outline: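 Purified NS2B-NS3 protease with NS2B hydrophilic domain linked to NS3 protease domain by flexible linker, 1 nM final in 10 mM Tris-HCl pH 8.0, 0.01% Tween 20. Compounds preincubated 15 min, room temperature; Bz-Nle-KRR-AMC 10 microM (Km 18.3 µM); 15-min fluorescence change, 4-parameter Hill fit.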
Also: nearly all actives have a fitted effect of over 70% in size.
Potency is read from the fitted curve at half-maximal effect; tags tell the direction and shape of the fitted curve.

SMILES | Potency
Cc1nc(C(=O)NCC(=O)O)c(O)c2ccc(Oc3ccccc3)cc12 | active: 21.5 µM
N[C@@H](Cc1cc(I)c(Oc2cc(I)c(O)c(I)c2)c(I)c1)C(=O)O | inconclusive: 34.3 µM [inhibitor, partial curve]
CC1CCC(C(=O)N(c2cc(C#CC(C)(C)C)sc2C(=O)O)C2CCC(O)CC2)CC1 (stereo unspecified) | inconclusive: 24.1 µM [inhibitor, partial curve]
Cc1ccc(-n2[nH]c(C)c(N=Nc3cccc(-c4cccc(C(=O)O)c4)c3O)c2=O)cc1C | inconclusive: 9.61 µM [inhibitor, full curve]

Each molecule was assayed on Zika virus NS2B-NS3 protease (unlinked complex) (assay: Confirmatory screen GU AMC qHTS for Zika virus inhibitors (AID 1347153;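 also: enzyme at 25 nM with substrate at 10 µM below its Km of 18.3 µM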)). Conditions: Recombinant NS2B-NS3 protease, AMC substrate fluorescence; series mostly up to 57.1 µM.
Outline: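 Fluorescence change (ex 340/em 450 nm) over 15 min, ~20% substrate conversion, normalized to no-inhibitor and no-enzyme controls, then Hill-fitted. Unlinked protease at 25 nM; AMC peptide 10 µM.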

SMILES | Potency
Cc1nc(C(=O)NCC(=O)O)c(O)c2ccc(Oc3ccccc3)cc12 | inconclusive: 21.5 µM [inhibitor, partial curve, poor fit]
N[C@@H](Cc1cc(I)c(Oc2cc(I)c(O)c(I)c2)c(I)c1)C(=O)O | inconclusive: 19.3 µM [inhibitor, partial curve]
CC1CCC(C(=O)N(c2cc(C#CC(C)(C)C)sc2C(=O)O)C2CCC(O)CC2)CC1 (stereo unspecified) | inconclusive: 24.1 µM [inhibitor, partial curve]
COc1c(N2CCNC(C)C2)c(F)cc2c(=O)c(C(=O)O)cn(C3CC3)c12 (stereo unspecified) | inconclusive: 27.1 µM [inhibitor, single point]
NC(=O)c1ccc2nc(-c3ccc(Oc4ccc(Cl)cc4)cc3)[nH]c2c1 | inconclusive: 30.4 µM [inhibitor, single point]
CC1COc2c(N3CCN(C)CC3)c(F)cc3c(=O)c(C(=O)O)cn1c23 (stereo unspecified) | active: 27.1 µM and inconclusive: 27.1 µM [inhibitor, single point]
O=C(O)c1cn(-c2ccc(F)cc2)c2cc(N3CCNCC3)c(F)cc2c1=O | inconclusive: 24.1 µM [inhibitor, partial curve] and inconclusive: 24.1 µM [inhibitor, single point]

What follows are molecules tested on Zika virus NS2B-NS3 protease (assay: Primary screen GU AMC qHTS for Zika virus inhibitors (AID 1347154)). Conditions: Zika NS2B-NS3 unlinked protease, AMC fluorogenic substrate; series mostly up to 54.1 µM.
Outline: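 Fluorogenic AMC-substrate cleavage by noncovalent NS2B-NS3 protease complex (25 nM, pH 8.0 Tris buffer with Tween 20) followed for 15 minutes at room temperature (~20% conversion). Percent inhibition from ex340/em450 signal change, fitted by 4-parameter Hill equation.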

SMILES | Potency
CC1(C)CCC(C)(C)c2cc(NC(=O)c3ccc(C(=O)O)cc3)ccc21 | inconclusive: 20 µM [inhibitor, partial curve, poor fit] and inconclusive: 24.1 µM [inhibitor, partial curve]
Cc1nc(C(=O)NCC(=O)O)c(O)c2ccc(Oc3ccccc3)cc12 | active: 21.5 µM
Cc1cc(C(=O)NOCCO)c(Nc2ccc(I)cc2F)n(C)c1=O | inactive
O=c1oc2c(O)c(O)cc3c(=O)oc4c(O)c(O)cc1c4c23 | active: 496 nM and active: 1.92 µM
COC(=O)[C@H](Cc1ccccc1)NC(=O)[C@@H](N)CC(=O)O (H-Asp-Phe-OMe) | inactive
CC1CCC(C(=O)N(c2cc(C#CC(C)(C)C)sc2C(=O)O)C2CCC(O)CC2)CC1 (stereo unspecified) | inconclusive: 24.1 µM [inhibitor, partial curve]
Clc1cc(Cl)cc(CNc2ncncc2-c2ccc3c(c2)OCO3)c1 | inactive
Cc1ccc(-n2[nH]c(C)c(N=Nc3cccc(-c4cccc(C(=O)O)c4)c3O)c2=O)cc1C | active: 19.2 µM
OCCN1CCN(CCCN2c3ccccc3Sc3ccc(C(F)(F)F)cc32)CC1 | inactive
COc1c(N2CCNC(C)C2)c(F)cc2c(=O)c(C(=O)O)cn(C3CC3)c12 (stereo unspecified) | active: 16.1 µM and active: 24.1 µM
NC(=O)c1ccc2nc(-c3ccc(Oc4ccc(Cl)cc4)cc3)[nH]c2c1 | active: 24.1 µM
C[C@@H]1CCO[C@H]2Cn3cc(C(=O)NCc4ccc(F)cc4F)c(=O)c(O)c3C(=O)N12 | inconclusive: 27.1 µM [inhibitor, partial curve, poor fit]
COCCOC(=O)C1=C(C)NC2=C(C(=O)CC(c3ccccc3OC)C2)C1c1cccc(O)c1 (stereo unspecified) | inconclusive: 24.1 µM [inhibitor, partial curve]
CN[C@@H](C)C(=O)N[C@H]1CCCC[C@H]2CC[C@@H](C(=O)N[C@@H](c3ccccc3)c3cn(CCCCc4ccc(CCCCn5cc([C@@H](NC(=O)[C@@H]6CC[C@@H]7CCCC[C@H](NC(=O)[C@H](C)NC)C(=O)N76)c6ccccc6)nn5)cc4)nn3)N2C1=O | inconclusive: 17.1 µM [inhibitor, partial curve]
CC1COc2c(N3CCN(C)CC3)c(F)cc3c(=O)c(C(=O)O)cn1c23 (stereo unspecified) | active: 28.7 µM and active: 24.1 µM
